# Experimental data from the supplement of paper PMC3334620.
# Over roughly 33,000 sequences, “E-score (-0.5 to 0.5)” has its median near -0.013; the highest 2% begin near 0.3. This is one part of the list.
# Target: T1, Msn1 (UniProt P22148)
# T1 sequence: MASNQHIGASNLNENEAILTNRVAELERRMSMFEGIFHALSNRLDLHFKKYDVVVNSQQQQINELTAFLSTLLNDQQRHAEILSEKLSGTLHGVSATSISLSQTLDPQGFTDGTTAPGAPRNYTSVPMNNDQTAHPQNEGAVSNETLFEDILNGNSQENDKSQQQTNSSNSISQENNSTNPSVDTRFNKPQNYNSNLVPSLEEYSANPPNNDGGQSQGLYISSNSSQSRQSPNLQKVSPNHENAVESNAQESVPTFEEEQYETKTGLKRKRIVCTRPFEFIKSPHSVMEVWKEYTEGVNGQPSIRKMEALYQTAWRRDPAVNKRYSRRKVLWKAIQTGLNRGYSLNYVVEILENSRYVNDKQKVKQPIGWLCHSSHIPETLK
# Assay: PBM E-score (8-mer binding enrichment) (E-score (-0.5 to 0.5)); higher = stronger / more preferred TF binding; most listed sequences are background and not binding sites
# Settings: protein concentration: 200 nM; construct: GST-full length
# Procedure, shortened: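 Yeast transcription factors, full-length or as DNA-binding domains, were expressed with a GST tag using PURExpress in vitro transcription/translation. At about 100-200 nM they were applied to universal all-10-mer Agilent arrays, double-stranded by primer extension on fresh or once-stripped slides. Fluorescent anti-GST detected bound protein, and masliner normalised the scans. E-scores for ungapped eight-base words, pooled with reverse complements, came from the Universal PBM Analysis Suite.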
row,Sequence,PBM E-score
1,AACCCAAG,-0.0418
2,CAGTAGGC,-0.216
3,AAGCGGCA,0.0195
4,GAAGCAAA,0.0838
5,AAGTTGCA,-0.00524
6,CTTCCGAC,0.11
7,GGGGCCCC,-0.264
8,GTTTCGTA,0.0844
9,ACGCCAGT,-0.218
10,ACCAACTC,0.0532
11,CCAGAAAC,-0.0853
12,AGTCTAAA,0.0711
13,CTTATACC,0.102
14,CACTTAAC,-0.0864
15,GTACGTTA,0.0833
16,ACCTCCGT,-0.0463
17,CACGGCAC,-0.0714
18,GGGTCTTA,-0.0158
19,ACAATCAG,0.132
20,CTTGTGGC,-0.0885
21,ATTATAAT,0.307
22,ACTTCGGC,0.126

row,Sequence,PBM E-score
1,GCGATCGA,0.0833
2,ATCAAACG,-0.0179
3,ATCCCGAT,0.125
4,GCTAATTA,-0.00217
5,ATTGAAAA,0.266
6,CAGATTCA,-0.223
7,ACCCTTCC,-0.253
8,GTGGTAAA,0.157
9,GATTCTGC,0.114
10,CCAACTAA,0.0228
11,AAAAACTC,-0.0111
12,CCAGAATA,0.122
13,AACATCTA,-0.0396
14,ACCGTGCA,-0.0617
15,CCACTTCA,-0.141
16,CACGGTCC,-0.411
17,ATTACTGC,0.0705
18,AGCTCCCA,-0.233
19,GTAGAGAA,0.0676
20,ACGCCCAT,-0.00159
21,CATCAGAC,-0.0545
22,CACTATTA,0.0994

row,Sequence,PBM E-score
1,CGTTAGGA,0.079
2,CGGTTTAA,0.122
3,CCATGAGG,-0.267
4,GCAGAAAA,0.133
5,CGATATTA,0.249
6,ACCCATGG,-0.121
7,CTTTAGCA,-0.107
8,CGGAAGAC,0.0626
9,AAGTTGGA,0.067
10,ACATGTGG,0.228
11,GCCTTAAA,0.00041
12,CGCGGCCC,-0.0805
13,GAGCTGAC,0.0216
14,CTTTCATC,-0.145
15,TCATACGA,0.0671
16,ATAGCGGA,-0.0587
17,GGACAATA,0.464
18,CTAGCTTA,-0.0475
19,AGCGGAAC,-0.091
20,GACAGCGC,0.102
21,CCTTGCCG,-0.0395
22,ACTCGAGG,0.0141

row,Sequence,PBM E-score
1,AGAAAAAT,0.163
2,AGCAGTGG,-0.317
3,AGGTCTGA,0.0482
4,TTATCCAA,0.274
5,GACGGAAC,0.0588
6,AACGCCGA,0.148
7,CTGCGACC,-0.19
8,AGAATTGA,-0.0723
9,GTTAGTGA,-0.0121
10,AAAGTCGG,0.2
11,ACGTGTGC,-0.198
12,GTTGTATA,0.158
13,AAGTAGCT,-0.141
14,AAGAGGCA,-0.119
15,AATGATCC,-0.0123
16,AGAACAAG,0.151
17,CCAAGCAA,-0.0576
18,AGTTAGAG,-0.168
19,CTGTTTCC,-0.134
20,CACGTGCC,-0.0225
